These results are taken from the RNAGym collection of RNA variant scans (doi:10.1093/nar/gkz1192).

The chains are these.
B1: CPEB3 Ribozyme (parent)
chain: UAACAGGGGGCCACAGCAGAAGCGUUCACGUCGCAGCCCCUGUCAGAUUCUGGUGAAUCUGCGAAUUCUGCUGUAUAUCUC

The source gives no read counts; variants with many changes may rest on few reads.

In this data set the parent is B1. Nature of the data set: self-cleavage, relative activity (ratio to wild type); higher = more cleavage; in vitro, sequencing. The method, boiled down: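 Relative activity was defined as the cleaved/total read fraction for a variant divided by the same fraction for the unmutated ribozyme. CPEB3 self-cleaving ribozyme libraries were made by rounds of error-prone PCR, barcoded, and transcribed in vitro with T7 RNA polymerase for 5 hours at 37°C, and cleavage ran through transcription plus a 15 min DNase I step before EDTA. Illumina sequencing of template-switched reverse transcripts gave the reads, and DNA sequencing mapped the barcodes. Averages come from three batches, using variants with at least 5 reads.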
Take A15G G16U U49C A64G: the self-cleavage is 0.06.

For the variant A15G C44U A56U, the self-cleavage was 0.26.

A15G A28U U48A U51A A56G U76C: the self-cleavage stood at 0.08. The result for A15G A28U U69C reads 0.34; that for A15G A28U C40U U48C C50U U72C, 0.12; that for A15G A28G C32A, 0.14. In the case of A15G A28G U49C U51A C59U U72C, the self-cleavage came out at 0.08. The same measure for A15G A56G A64U U72G C79U: 0.16; for A15G A21G C40U U41C: 0.35; for A15G A35U A45G A77G: 0.18. The same measure for A15G A35G A45G U69A A75C A77U: 0.17.

Regarding A15G C17A U25C U31G U54A U74A, the self-cleavage was determined as 0.07.

Regarding A15G A35U U43C U69C U72A, the self-cleavage was determined as 0.09. The same measure for A15G A21G A47G: 0.57. Regarding A15G A45G G53C U69C U78G, the self-cleavage worked out at 0.17. The same measure for A15G A20U A77G: 0.29; for A15G A35U C40U: 0.33; for A15G C40U A56G: 0.44. The result for A15G A64G U66C U67A U69G U72C reads 0.23; that for A15G G19C U31G A56U, 0.08; that for A15G A20C U41A U51A, 0.36. For the variant A15G A18U A21G U67C U74C, the self-cleavage is 0.2. A15G A35G U43A A75G: the self-cleavage came out at 0.87. Turning to A15G A21C A35U U41A G55C U69C, the self-cleavage stood at 0.05.

Consider A15G A35G A45G U58C U78A, for which the self-cleavage worked out at 0.31. The same measure for A15G A20G A47G U69A: 0.14; for A15G A65G U72C: 0.71. The result for A15G A21G U41C U60C U74C reads 0.22; that for A15G C29G U74C A75U, 0.1.

On to A15G A28G C37A C39U A56G U60A U69G, for which the self-cleavage came to 0.13. With A15G C50U A56G U76C U80C, the self-cleavage worked out at 0.8. The same measure for A15G A20G A21U A28G G53C U76C U78C: 0.03; for A15G C23G C40A: 0.09. The result for A15G A47G U74G reads 1.2; that for A15G A21G U26C U49C A57G G63C A64G, 0; that for A15G A45G U60C U78C, 0.43. The result for A15G A20U A28G reads 0.26; that for A15G A20G U49C, 0.15; that for A15G C17A A64G U78C, 0.22.

Consider A15G A28G U69C, for which the self-cleavage turned out to be 0.34. A15G A35G A45U U67C A77G: the self-cleavage came to 0.18. The result for A15G A18U U43C A64G A65G U69C reads 0.11; that for A15G A18U U48C, 0.15; that for A15G A28G A35G U41A C44A A45G U76C, 0.11. Take A15G A35U A56G: the self-cleavage came to 0.24.

For the variant A15G A35G A57G A75U A77G, the self-cleavage came out at 0.98. The same measure for A15G A28G U67G: 0.16. The result for A15G A21G U48C A64G U72C reads 0.09.

In the case of A15G A20G A28G U31A, the self-cleavage amounted to 0.11. The result for A15G G24A U31C U41C reads 0.08; that for A15G A18U A35U U58C A77G, 0.09. For the variant A15G G24A U43C A64U, the self-cleavage came out at 0.14. The same measure for A15G A64G A65G: 0.16; for A15G G19U U49C: 0.3. The same measure for A15G A21G A56C: 0.16; for A15G A21G A56G: 0.15. Take A15G A20G A35G A47G G55A U72A U74A: the self-cleavage was 0.09. The same measure for A15G A20G A57G: 0.3. The same measure for A15G A20G U25C C44U: 0.03; for A15G A28G U43A U72C U74C: 1.44; for A15G A35G G53U U54C U58C: 0.24. The same measure for A15G G36C U41A U49A: 0.13.

Turning to A15G A20G U25C A28U U67C, the self-cleavage was 0.51.

With A15G A20C U31C, the self-cleavage turned out to be 0.43. As for A15G A20U U69A U72G, the self-cleavage was 0.09. In the case of A15G A35U A45G U49C U60C U78C, the self-cleavage was determined as 0.09.

A15G G46A A57G: the self-cleavage was found to be 0.24. With A15G C32A A45G U66C, the self-cleavage was found to be 0.13. The result for A15G A18G U60C U76A reads 0.11. Take A15G A20G C38U U78C U80C: the self-cleavage is 0.23. Consider A15G C62U U66C U76C A77G, for which the self-cleavage was found to be 0.13. The same measure for A15G C17G A20G: 0.55. The same measure for A15G C34U U72C: 0.33. On to A15G A64G C81U, for which the self-cleavage stood at 0.51. The same measure for A15G G24A U43A: 0.35; for A15G A35G U54C A56G A64G: 0.4; for A15G A21G U67A U80C: 0.53.

As for A15G C40A U43C G53A, the self-cleavage turned out to be 0.14. The same measure for A15G A20U U58C U60C A64G: 0.09; for A15G C23G U41A U43C C79G: 0.27. As for A15G A35U U43C U49C, the self-cleavage is 0.07. The same measure for A15G A57G A64U: 0.19; for A15G G24A U41C U72G: 0.18; for A15G A28G A45C G73A: 0.16.
